This is an account of results in publication PMC4336329 (PLoS ONE, 2015).

The whole screen tested about 310,000 compounds, of which about 14,000 (4.5%) showed an effect of 50% or more. Effects have a minus sign here. This is one part of the list.
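Further: peak tail current of the secondary pulse compared with the same well before compound.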

human ether-à-go-go-related gene (hERG) potassium channel, sequence (Q12809 whole entry, looked up): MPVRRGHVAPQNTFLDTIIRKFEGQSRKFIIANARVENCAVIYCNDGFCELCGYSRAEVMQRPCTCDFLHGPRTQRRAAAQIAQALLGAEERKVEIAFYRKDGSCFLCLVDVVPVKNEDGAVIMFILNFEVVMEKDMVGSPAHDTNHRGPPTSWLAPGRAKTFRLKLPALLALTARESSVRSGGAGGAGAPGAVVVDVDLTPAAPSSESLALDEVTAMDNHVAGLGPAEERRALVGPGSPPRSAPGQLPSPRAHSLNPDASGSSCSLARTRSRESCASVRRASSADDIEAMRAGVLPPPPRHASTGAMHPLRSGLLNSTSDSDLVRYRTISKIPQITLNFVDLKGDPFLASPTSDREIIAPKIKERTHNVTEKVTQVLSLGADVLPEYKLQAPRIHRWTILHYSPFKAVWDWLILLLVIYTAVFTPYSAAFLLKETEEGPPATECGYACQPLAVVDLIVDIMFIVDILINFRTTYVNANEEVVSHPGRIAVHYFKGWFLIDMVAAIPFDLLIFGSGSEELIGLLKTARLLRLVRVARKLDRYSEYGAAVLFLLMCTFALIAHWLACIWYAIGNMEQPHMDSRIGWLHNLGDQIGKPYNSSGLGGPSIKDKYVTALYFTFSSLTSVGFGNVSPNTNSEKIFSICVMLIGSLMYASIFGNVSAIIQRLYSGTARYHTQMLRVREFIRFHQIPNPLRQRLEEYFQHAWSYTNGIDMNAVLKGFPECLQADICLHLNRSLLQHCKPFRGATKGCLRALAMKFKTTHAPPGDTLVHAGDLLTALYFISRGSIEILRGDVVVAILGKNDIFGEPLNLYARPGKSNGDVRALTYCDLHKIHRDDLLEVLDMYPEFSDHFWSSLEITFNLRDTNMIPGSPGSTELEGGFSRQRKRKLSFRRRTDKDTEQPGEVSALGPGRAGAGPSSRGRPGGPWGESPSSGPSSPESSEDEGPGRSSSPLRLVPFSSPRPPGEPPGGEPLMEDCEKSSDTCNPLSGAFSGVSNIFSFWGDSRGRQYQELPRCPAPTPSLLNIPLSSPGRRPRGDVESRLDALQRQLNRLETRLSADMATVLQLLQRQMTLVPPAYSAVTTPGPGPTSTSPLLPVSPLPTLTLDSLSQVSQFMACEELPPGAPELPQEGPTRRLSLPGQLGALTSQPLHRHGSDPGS

This assay has as its target human ether-à-go-go-related gene (hERG) potassium channel (human, UniProt Q12809). The experiment in a line: primary screen, population patch clamp on CHO cells stably expressing hERG.
As to `COc1cc(S(=O)(=O)N2CCN(C(=O)c3ccccc3)CC2)c(OC)cc1Br`, the “hERG current change (%, negative = inhibition) at 10uM” value was -20.3%.
As for `CN1C(=O)N(CC(=O)N2CCN(c3ccccc3F)CC2)C(=O)C12CCCCC2`, the “hERG current change (%, negative = inhibition) at 10uM” value came to 8.78%.
With `Oc1c(C=Nc2ccc(Cl)cn2)sc2ccccc12`, the “hERG current change (%, negative = inhibition) at 10uM” value is given as 5.25%.
Take `Cn1c(=O)c(=O)n(C)c2cc(S(=O)(=O)NCCc3ccccc3)ccc21`: the “hERG current change (%, negative = inhibition) at 10uM” value is recorded as -37.4%.
Turning to `Cc1cccc(NC(=S)NC2CC3CCCC(C2)N3CC(C)C)c1C` (stereo not shown), the “hERG current change (%, negative = inhibition) at 10uM” value is -23.4%.
In the case of `CSCCC(NC(=O)c1ccco1)C(=O)OCC(=O)Nc1sccc1C#N` (stereo not shown), the “hERG current change (%, negative = inhibition) at 10uM” value is on record as -0.514%.
In the case of `COc1ccc(NC(=O)Nc2sc(NS(=O)(=O)c3ccccc3)nc2C)cc1`, the “hERG current change (%, negative = inhibition) at 10uM” value is on record as 32.2%.
With `Cn1c(=O)c(-[n+]2ccccc2)c([O-])c2ccccc21` the figure was 5.51%; with `CC1(c2ccccc2)O[C@@H]2C[C@H]3[C@@H]4CCC5=CC(=O)C=C[C@]5(C)[C@@]4(F)[C@@H](O)C[C@]3(C)[C@]2(C(=O)CO)O1` (stereo partly shown), -78.6%; with `CC(=O)c1ccc(NC(=O)C(C)OC(=O)C2CC(=O)N(c3ccc4c(c3)OCCO4)C2)cc1` (stereo not shown), 5.57%.
On to `CCN(CC)C(=O)CSc1nnc2c3ccccc3n(C)c2n1`, for which the “hERG current change (%, negative = inhibition) at 10uM” value was -6.44%.
As to `COCCCNc1nnc(Cc2ccccc2)c2ccccc12`, the “hERG current change (%, negative = inhibition) at 10uM” value is -31.4%.
Turning to `COc1ccc(-n2c(=O)c3c4c(sc3n(CC(=O)NCc3ccco3)c2=O)CCC4)c(OC)c1`, the “hERG current change (%, negative = inhibition) at 10uM” value is -4.75%.
As to `CC(=O)COc1ccc2cc(-c3ccccc3)c(=O)oc2c1`, the “hERG current change (%, negative = inhibition) at 10uM” value came out at 8.02%.
As to `Cc1nc(SCC(=O)O)c(C#N)c(-c2ccco2)c1C(=O)N(C)C`, the “hERG current change (%, negative = inhibition) at 10uM” value is recorded as 8.55%.
Next, `COc1ccccc1NC(=O)CSc1nc(O)cc(=O)[nH]1`: 11.9%; `CC1(C)CC(=O)C=C(c2cc3ccccc3s2)C1`: 5.03%; `CSc1nc(Oc2ccc(C)cc2)cc(C(F)(F)F)n1`: 15%.
In the case of `O=C(COC(=O)c1ccc(Br)o1)NCc1ccc(F)cc1`, the “hERG current change (%, negative = inhibition) at 10uM” value came to 9.06%.
Take `C=CCSc1nnc(NC(=O)CSc2nnc(C)s2)s1`: the “hERG current change (%, negative = inhibition) at 10uM” value was -8.93%.
With `CN1C(=O)/C(=C2\SC(=S)N(NC(=O)c3cccnc3)C2=O)c2ccccc21`, the “hERG current change (%, negative = inhibition) at 10uM” value is recorded as 12.8%.
For `COc1ccccc1C1C=C(c2ccc(Cl)cc2)Nc2nc(NS(C)(=O)=O)nn21` (stereo not shown), the “hERG current change (%, negative = inhibition) at 10uM” value is given as -1.88%.
Take `CC(=O)Nc1ccccc1OC(=O)N(C)C`: the “hERG current change (%, negative = inhibition) at 10uM” value was found to be 2.41%.
Consider `Cc1ccc(S(=O)(=O)CCC(=O)OC(C)C(=O)Nc2ccc(N3CCOCC3)cc2)cc1` (stereo not shown), for which the “hERG current change (%, negative = inhibition) at 10uM” value is recorded as 11%.
Turning to `O=C(CSc1nnc(Cc2ccccc2)o1)NCc1ccco1`, the “hERG current change (%, negative = inhibition) at 10uM” value was determined as 28%.
As to `O=c1c2ccccc2nc(COc2ccccc2)n1/N=C/c1ccc(O)c(O)c1`, the “hERG current change (%, negative = inhibition) at 10uM” value is listed as -7.78%.
For `COc1ccc(S(=O)(=O)N2CCC(C(=O)NCCc3ccccc3)CC2)cc1OC`, the “hERG current change (%, negative = inhibition) at 10uM” value is -17%.
`COC(=O)CC(=O)Cc1nc(N)nc(Nc2ccc(C)c(C)c2)n1`: the “hERG current change (%, negative = inhibition) at 10uM” value is reported as -9.22%.
As for `COc1ccc(CC(=O)Nc2cc(Cl)ccc2O)cc1`, the “hERG current change (%, negative = inhibition) at 10uM” value is -1.45%.
`CSc1cccc(N2CC(C(=O)Nc3cccc(S(=O)(=O)N4CCCC4)c3)CC2=O)c1` (stereo not shown): the “hERG current change (%, negative = inhibition) at 10uM” value was 3.7%.
Consider `CCC(=O)N1N=C(c2ccccc2)CC1c1ccccc1` (stereo not shown), for which the “hERG current change (%, negative = inhibition) at 10uM” value amounted to 2.71%.
With `COCC(=O)Nc1ccc(S(=O)(=O)NCC2CCCO2)cc1` (stereo not shown) the figure was 14.5%; with `CCN(CC)CCNC(=O)c1ccc(NC(=O)c2ccc(C(=O)c3ccccc3)cc2)cc1`, -43.7%; with `CCc1c(O)nc(SCC(=O)Nc2ccc(C)cc2)n(C2CCCCC2)c1=O`, -3.5%.
For the molecule `CO/N=C(\Cn1ncc(N2CCCC2)c(Cl)c1=O)c1ccc(Cl)cc1`, the “hERG current change (%, negative = inhibition) at 10uM” value is -64%.
With `CC1CCC(N(C)C2CCN(C)CC2)CC1` (stereo not shown), the “hERG current change (%, negative = inhibition) at 10uM” value stood at 11.3%.
Turning to `Cc1nn(-c2ccccc2)c(C)c1-c1nnc(C(F)(F)F)o1`, the “hERG current change (%, negative = inhibition) at 10uM” value is 2.32%.
For `COc1ccc(N(CC(=O)Nc2cc(Cl)ccc2C)S(=O)(=O)c2c(C)noc2C)cc1`, the “hERG current change (%, negative = inhibition) at 10uM” value was 16.7%.
With `COc1ccc(OC)c(NC(=O)Cc2coc3cc(C)cc(C)c23)c1`, the “hERG current change (%, negative = inhibition) at 10uM” value was 1.9%.
Consider `CCCn1c(NC(=O)CN2C(=O)NC3(CCCC3)C2=O)nc2ccccc21`, for which the “hERG current change (%, negative = inhibition) at 10uM” value is reported as 13.3%.
`CC1=C(C(=O)Nc2ccccc2)C(c2ccccc2[N+](=O)[O-])NC(=O)N1` (stereo not shown): the “hERG current change (%, negative = inhibition) at 10uM” value was 8.81%.
`C[C@H](NC(=O)c1nc[nH]c1C(=O)NCC(=O)OC(C)(C)C)C(=O)OC(C)(C)C`: the “hERG current change (%, negative = inhibition) at 10uM” value amounted to 8.56%.
In the case of `COc1ccc(-n2c(SCC(=O)NCc3ccco3)nc3c([nH]c4ccccc43)c2=O)cc1`, the “hERG current change (%, negative = inhibition) at 10uM” value is 16.2%.
